Measurements as given in article PMC12822405.
Substitutions are numbered along the chain they refer to. Results are given in words; binding and its absence hold for the method and conditions named. Binding seen in cells or lysates may run through a third protein. Some binding calls cover weakened binding; strength is not graded here.

Legend:
[1] = target: T1, Tetraspanin 4 (TSPAN4) (UniProt O14817); assay: pull-down; His pull‐down from 786‐O lysates on Ni‐NTA agarose, 90 min 4 °C; washed three times with 8 M urea‐containing buffer to remove non‐covalent binding; shows covalent binding only
T1 sequence: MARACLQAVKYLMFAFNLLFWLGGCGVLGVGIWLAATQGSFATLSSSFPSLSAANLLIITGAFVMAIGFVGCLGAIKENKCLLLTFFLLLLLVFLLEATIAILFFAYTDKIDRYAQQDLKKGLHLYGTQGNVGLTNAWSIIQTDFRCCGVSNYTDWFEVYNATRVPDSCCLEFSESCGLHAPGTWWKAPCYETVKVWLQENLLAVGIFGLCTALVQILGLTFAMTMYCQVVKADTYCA

[2] = target: T1, Tetraspanin 4 (TSPAN4); assay: co-IP; both proteins expressed in 786‐O cells; lysis buffer 20 mM Tris, 150 mM NaCl, 1 mM EDTA, 1 mM EGTA, 2.5 mM sodium pyrophosphate, 1% Triton X‐100; protein G‐sepharose and antibody 3 h at 4 °C; ITM2B^1‐115 with p10 also in TSPAN4‐knockdown cells (not affected)
[3] = target: T2, TSPAN4^C5S (Cys5 mutant of TSPAN4) (UniProt O14817); assay: pull-down; His pull‐down from 786‐O lysates on Ni‐NTA agarose, 90 min 4 °C; washed three times with 8 M urea‐containing buffer to remove non‐covalent binding; shows covalent binding only
T2 sequence: T1 sequence with C5S

[4] = target: T1, Tetraspanin 4 (TSPAN4); assay: pull-down; His pull‐down with 8 M urea washes as a2, with reducing agents (β‐ME, TCEP)

binding [1]	binding [2]	binding [3]	Substance	binding [4]
no binding	no binding		ITM2B 1–115^C54S (Cys54 mutant of the ITM2B truncation) (from UniProt Q9Y287 1-115) (domain or fragment)	
binds	binds	no binding	ITM2B^1‐115 (N‐terminal truncation of integral membrane protein 2B) (from UniProt Q9Y287 1-115) (domain or fragment)	no binding (condition: with reducing agents (β‐ME, TCEP))
	no binding		ITM2B^116‐266 (the C‐terminal fragment after ITM2B cleavage) (from UniProt Q9Y287 116-266) (domain or fragment)	
